Assay results: the supplement of paper PMC12217912
Some of the results follow. Sequences were assembled here from the parent chain. Values near 0.05 are background.

B1: TEV protease; numbered along this chain (parent)
chain: MGESLFKGPRDYNPISSSICHLTNESDGHTTSLYGIGFGPFIITNKHLFRRNNGTLVVQSLHGVFKVKDTTTLQQHLVDGRDMIIIRMPKDFPPFPQKLKFREPQREERICLVTTNFQTKSMSSMVSDTSCTFPSGDGIFWKHWIQTKDGQCGSPLVSTRDGFIVGIHSASNFTNTNNYFTSVPKNFMELLTNQEAQQWVSGWRLNADSVLWGGHKVFMVKPEEPFQPVKEATQL

Variants of: B1
Experiment: raw area under fraction-flipped curve 0-4 h after induction (AUC4h, not background-subtracted), DNA-recorder readout of cleavage of the substrate (dimensionless); higher = more cleavage of the substrate by the protease variant
Details: temperature: 34 °C; time window: 0-4 h after rhamnose induction
Protocol: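 In vivo DNA recorder in E. coli TOP10(DE3) ΔrhaA at 34 °C. Each TEVp single-site mutant (parent TEVp 0) is paired with a single-site variant of the 7-mer TEVs (canonical ENLYFQ|S). The substrate sits between flexible linkers in a Bxb1-sfGFP-TEVs-SsrA fusion, so cleavage stabilises Bxb1 and speeds flipping of a recombination array, read by NGS. The value is the raw area under the fraction-flipped curve over 0-4 h after rhamnose induction (AUC4h), with ≥20 reads per time point. It is not background-subtracted; inactive controls average about 0.047.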
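Note: Bxb1 expression induced with 0.2% (w/v) L-rhamnose at OD600 near 0.5, cultures sampled hourly, flipped fraction per protease–substrate barcode pair counted by paired-end Illumina sequencing.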

Row | Variant | area with substrate ENAYFQS | area with substrate ENCYFQS | area with substrate ENDYFQS | area with substrate ENEYFQS | area with substrate ENFYFQS | area with substrate ENGYFQS | area with substrate ENHYFQS | area with substrate ENIYFQS | area with substrate ENMYFQS | area with substrate ENPYFQS | area with substrate ENQYFQS | area with substrate ENRYFQS | area with substrate ENSYFQS | area with substrate ENTYFQS | area with substrate ENVYFQS | area with substrate ENKYFQS | area with substrate ENWYFQS | area with substrate ENYYFQS | area with substrate ENNYFQS
1 | MQESLFKGPRDYNPISSSICHLTNESDGHTTSLYGIGFGPFIITNKHLFRRNNGTLVVQSLHGVFKVKDTTTLQQHLVDGRDMIIIRMPKDFPPFPQKLKFREPQREERICLVTTNFQTKSMSSMVSDTSCTFPSGDGIFWKHWIQTKDGQCGSPLVSTRDGFIVGIHSASNFTNTNNYFTSVPKNFMELLTNQEAQQWVSGWRLNADSVLWGGHKVFMVKPEEPFQPVKEATQL [G2Q] | 0.0551 | 0.0721 | 0.0532 | 0.0834 | 0.06 | 0.073 | 0.033 | 0.118 | 0.0905 | 0.0666 | 0.055 | 0.0712 | 0.0649 | 0.0567 | 0.0746 |  |  |  | 
2 | MGGSLFKGPRDYNPISSSICHLTNESDGHTTSLYGIGFGPFIITNKHLFRRNNGTLVVQSLHGVFKVKDTTTLQQHLVDGRDMIIIRMPKDFPPFPQKLKFREPQREERICLVTTNFQTKSMSSMVSDTSCTFPSGDGIFWKHWIQTKDGQCGSPLVSTRDGFIVGIHSASNFTNTNNYFTSVPKNFMELLTNQEAQQWVSGWRLNADSVLWGGHKVFMVKPEEPFQPVKEATQL [E3G] | 0.0629 | 0.0642 | 0.055 | 0.071 | 0.059 | 0.069 | 0.0636 |  |  | 0.0463 | 0.0595 | 0.0672 | 0.0616 | 0.0673 | 0.0561 | 0.0721 | 0.0449 | 0.0568 | 
3 | MGEELFKGPRDYNPISSSICHLTNESDGHTTSLYGIGFGPFIITNKHLFRRNNGTLVVQSLHGVFKVKDTTTLQQHLVDGRDMIIIRMPKDFPPFPQKLKFREPQREERICLVTTNFQTKSMSSMVSDTSCTFPSGDGIFWKHWIQTKDGQCGSPLVSTRDGFIVGIHSASNFTNTNNYFTSVPKNFMELLTNQEAQQWVSGWRLNADSVLWGGHKVFMVKPEEPFQPVKEATQL [S4E] | 0.0721 | 0.065 | 0.0618 | 0.0541 | 0.0596 | 0.0826 | 0.0546 |  |  | 0.0584 | 0.0474 | 0.0575 | 0.043 | 0.0632 | 0.1 | 0.065 |  | 0.0474 | 0.0453
4 | MGEKLFKGPRDYNPISSSICHLTNESDGHTTSLYGIGFGPFIITNKHLFRRNNGTLVVQSLHGVFKVKDTTTLQQHLVDGRDMIIIRMPKDFPPFPQKLKFREPQREERICLVTTNFQTKSMSSMVSDTSCTFPSGDGIFWKHWIQTKDGQCGSPLVSTRDGFIVGIHSASNFTNTNNYFTSVPKNFMELLTNQEAQQWVSGWRLNADSVLWGGHKVFMVKPEEPFQPVKEATQL [S4K] | 0.0535 |  |  | 0.0521 |  |  |  |  |  | 0.0616 | 0.0592 |  | 0.103 | 0.0444 | 0.0924 | 0.0574 | 0.0131 |  | 0.0504
5 | MGEPLFKGPRDYNPISSSICHLTNESDGHTTSLYGIGFGPFIITNKHLFRRNNGTLVVQSLHGVFKVKDTTTLQQHLVDGRDMIIIRMPKDFPPFPQKLKFREPQREERICLVTTNFQTKSMSSMVSDTSCTFPSGDGIFWKHWIQTKDGQCGSPLVSTRDGFIVGIHSASNFTNTNNYFTSVPKNFMELLTNQEAQQWVSGWRLNADSVLWGGHKVFMVKPEEPFQPVKEATQL [S4P] | 0.061 | 0.0705 | 0.0633 | 0.0749 | 0.0547 |  | 0.0696 |  |  | 0.0576 | 0.0573 |  | 0.0644 | 0.0501 |  | 0.0657 | 0.0657 | 0.069 | 0.0769
6 | MGEVLFKGPRDYNPISSSICHLTNESDGHTTSLYGIGFGPFIITNKHLFRRNNGTLVVQSLHGVFKVKDTTTLQQHLVDGRDMIIIRMPKDFPPFPQKLKFREPQREERICLVTTNFQTKSMSSMVSDTSCTFPSGDGIFWKHWIQTKDGQCGSPLVSTRDGFIVGIHSASNFTNTNNYFTSVPKNFMELLTNQEAQQWVSGWRLNADSVLWGGHKVFMVKPEEPFQPVKEATQL [S4V] | 0.0548 | 0.0757 | 0.0782 | 0.0689 | 0.0691 | 0.0492 | 0.0677 |  | 0.0918 |  | 0.056 |  | 0.0606 |  |  |  |  |  | 
7 | MGESQFKGPRDYNPISSSICHLTNESDGHTTSLYGIGFGPFIITNKHLFRRNNGTLVVQSLHGVFKVKDTTTLQQHLVDGRDMIIIRMPKDFPPFPQKLKFREPQREERICLVTTNFQTKSMSSMVSDTSCTFPSGDGIFWKHWIQTKDGQCGSPLVSTRDGFIVGIHSASNFTNTNNYFTSVPKNFMELLTNQEAQQWVSGWRLNADSVLWGGHKVFMVKPEEPFQPVKEATQL [L5Q] | 0.0628 | 0.0651 | 0.0619 | 0.0645 | 0.0564 |  | 0.0605 | 0.17 | 0.0925 |  | 0.0577 | 0.0401 | 0.0622 | 0.0541 | 0.0826 | 0.0585 |  | 0.0462 | 0.0557
8 | MGESLFKGARDYNPISSSICHLTNESDGHTTSLYGIGFGPFIITNKHLFRRNNGTLVVQSLHGVFKVKDTTTLQQHLVDGRDMIIIRMPKDFPPFPQKLKFREPQREERICLVTTNFQTKSMSSMVSDTSCTFPSGDGIFWKHWIQTKDGQCGSPLVSTRDGFIVGIHSASNFTNTNNYFTSVPKNFMELLTNQEAQQWVSGWRLNADSVLWGGHKVFMVKPEEPFQPVKEATQL [P9A] | 0.0573 | 0.0217 | 0.0478 | 0.0665 |  | 0.0493 | 0.0518 |  | 0.0864 |  | 0.0665 | 0.0486 |  | 0.0637 | 0.0744 | 0.0649 |  | 0.0568 | 0.0609
9 | MGESLFKGPLDYNPISSSICHLTNESDGHTTSLYGIGFGPFIITNKHLFRRNNGTLVVQSLHGVFKVKDTTTLQQHLVDGRDMIIIRMPKDFPPFPQKLKFREPQREERICLVTTNFQTKSMSSMVSDTSCTFPSGDGIFWKHWIQTKDGQCGSPLVSTRDGFIVGIHSASNFTNTNNYFTSVPKNFMELLTNQEAQQWVSGWRLNADSVLWGGHKVFMVKPEEPFQPVKEATQL [R10L] | 0.0689 |  | 0.0625 | 0.0486 | 0.053 |  | 0.0578 | 0.122 |  | 0.0734 | 0.0545 | 0.0515 | 0.0636 | 0.0428 | 0.0688 | 0.0646 |  | 0.0568 | 0.0617
